Test results as given in publication PMC12136788.
This is one part of the list.

B1: chr1:34870196:34870197:-_ENSMUSG00000037503_ENSMUST00000047534|mus_hu|FALSE|FALSE (ssRNA)
RNA: GGGAGUUCUACAGUCCGACGAUCAUCUGAGCUCAUCUCAUCAGAUUGCAUAAAAAAUUAAAAUAGUAUCAAUUGACACCUAACUGAACUGGCUCAGGAUGGAAAUUCCAUUCCUUGGCAUGGAUACGUAAGUUCAAUGCAGAGCAACAGAGGAUUGAGCAUCA
B2: 100444871_100444991_3705_CDS_ENSG00000111647_ENST00000279907|human|control|control (ssRNA)
RNA: GGGAGUUCUACAGUCCGACGAUCUUCCUGAGCACCCUCUGAAUUUGUACUGAUGGCAUCUGGAGAAGUUUCACCAUAAUUCUGUAGGUUUGCACCAGCAUUCACACUUUCUGCUGUGCCCCUGUAAUUUGUAGUUGAGUUCUUCAACAGAGGAUUGAGCAUCA
B3: 75276373_75276493_3767_CDS_ENSG00000166348_ENST00000408019|human|control|control (ssRNA)
RNA: GGGAGUUCUACAGUCCGACGAUCACAGAACCUUGUGAUAUUCACCCAGGAAUCCAAAGGCAAGGAAGUCCCCAAGUCAGUACUGCUGCCCAGAUCCUUAGACCUAACAUCUCUCACUUGGGACAGCUUCUCUUGGUAUAUGUCCAACAGAGGAUUGAGCAUCA
B4: chr2:34631547:34631548:+_ENSMUSG00000026864_ENSMUST00000100171|mus_mus|motif|central (ssRNA)
RNA: GGGAGUUCUACAGUCCGACGAUCUGGGGGAGGGCCUCCACUUCCAUAGAGUUUGCUGAUAAUUGGCUGAACAAUUUCUUCGGGUUCCUUCUUUUUGGCUUUAAAGUCUUCAAUGUCCGCAUCCUGGUGGCUUUCCAGCCAUUCCAACAGAGGAUUGAGCAUCA
B5: chr2:48026839:48026840:+_ENSG00000116062_ENST00000540021|hu_hu|hu_hu_hu_mus_False|88_88 (ssRNA)
RNA: GGGAGUUCUACAGUCCGACGAUCAUAGUGAGCCACUAGCGUCCUAAAUCUCGAACAGUGGCGGUCAUCCGAAAACUGGCCGAUGAAAAACUUGCCCAGUGAAGUGUCCACAAAGCAAACACCAUACACACGAGUGUGACCAGACAACAGAGGAUUGAGCAUCA
B6: 1729879_1729999_916_CDS_ENSG00000013810_ENST00000313288|human|control|control (ssRNA)
RNA: GGGAGUUCUACAGUCCGACGAUCGGUCUGAGUGCCAUCUGCUGGCACGGGGGUGCCCACACCCGCAGGGCAGCCCAGGGCUUCGCCAGGCAGACCCUGCAGGGGUGCUCCUCCGCAGGCUUCCUUAGGGAUUGCACCAGGAGGCAACAGAGGAUUGAGCAUCA
B7: chr6:99998177:99998178:-_ENSG00000112237_ENST00000369220|hu_mus|FALSE|FALSE (ssRNA)
RNA: GGGAGUUCUACAGUCCGACGAUCAAGGGGAAGCAGCACGUCUUCCUGGCCCAUGUCCUGCACAUACUGGAGCAAAGGUCUAUAAGGAUGAUACACUAUCAAGCAACAGUCCAUUAAUUCUAAGAGGUAAAAUUCACAUUCUAGCAACAGAGGAUUGAGCAUCA
B8: chr7:138035701:138035702:+_ENSMUSG00000040268_ENSMUST00000120441|mus_hu|motif|central (ssRNA)
RNA: GGGAGUUCUACAGUCCGACGAUCUCCUGCAUUCAUAACAAAACAGAACUCCGCCUUUGGCCUUAGCUUAGUAGCAUCGCGGACCUUUGAAAUGUAGGUAAGCUUAAUGGCUCCAACACGUGAUGAUCCAGAAGGUAGGUUCUGCAACAGAGGAUUGAGCAUCA
B9: chr17:65740002:65740003:+_ENSG00000130935_ENST00000581375|hu_hu|hu_hu_hu_mus_False|28_58 (ssRNA)
RNA: GGGAGUUCUACAGUCCGACGAUCAACAAAUCUUUCUUCCCUGGACGAACAGGAAGAUUCAUAUUAAAAAAAAUAUAUGUCUAUGAAGUUAGGUGUGGUGGCCACACAGAGCUCCAGAGCACUUUGGGAGGUGGAUCUCUGAGUCAACAGAGGAUUGAGCAUCA
B10: chr5:69958400:69958401:+_ENSMUSG00000029208_ENSMUST00000154728|mus_mus|motif|central (ssRNA)
RNA: GGGAGUUCUACAGUCCGACGAUCGUCAUAAAAAUCUACCACAAUUUCAUUCAAAGGGAAGAGAUAUUUAAGCAUAACUCGGUUUUCAUCAAUAAAAGUCAUAUUUUUCUGAAUUGCUCUUCGUGCCUGACAAAGCGCCAUUAUCAACAGAGGAUUGAGCAUCA
B11: chr4:155069534:155069535:+_ENSMUSG00000074738_ENSMUST00000099265|mus_mus|FALSE|FALSE (ssRNA)
RNA: GGGAGUUCUACAGUCCGACGAUCAUGAUCCUGGGUGCCAGUGGUUUUUGCCAGAAGGGAAUGUAUAUUCUGGCCGGCUCUAUAAAGGCCUCUGGAGAUGGAGAAGACCCCUGGCUGCCAUUGACACUCUAGCCCAGGCCUAUGCAACAGAGGAUUGAGCAUCA
B12: chr5:145543945:145543946:-_ENSG00000133706_ENST00000545646|hu_hu|hu_hu_hu_mus_True|8_78 (ssRNA)
RNA: GGGAGUUCUACAGUCCGACGAUCCUGAACGGCCAGUGGUGGGAAAUAAUCAAGCCAAUGUUCUGCUUCAGAAAACUUCACUAUGUCGUCAUCAGAGAGCCCAAGGGAUUUCAUAAUGUCCCACUGGUAUUUAGAAGAUCCUGCCAACAGAGGAUUGAGCAUCA
B13: chr1:184247048:184247049:-_ENSMUSG00000047539_ENSMUST00000051431|mus_hu|FALSE|FALSE (ssRNA)
RNA: GGGAGUUCUACAGUCCGACGAUCCUGGAACUAGAACCACAUUCCAAUUUACUUUCUAUUCCGAAGACGUUUAGAUUUCCUAAGAGAGUCUAUGGCUUCCGUGGCCUUUUUUCGUUUCCGAGGAGACUCCUCAUUCUGCCCGGACAACAGAGGAUUGAGCAUCA
B14: 53546977_53561689_1691_CDS_ENSMUSG00000029189_ENSMUST00000031090|mouse|control|control (ssRNA)
RNA: GGGAGUUCUACAGUCCGACGAUCUACGGAGUCAUUUUGGUUCCAUGGCACGGUCAGCAGGUCCAUUUGCAGCAGGCUCUGGAACAAGCUGGGGUGCCUGUCUCUCAGUUCCUUCUCCCAGGGCAAGCCUCUGCACACCUCGGCCAACAGAGGAUUGAGCAUCA
B15: chr4:96106342:96106343:-_ENSG00000182168_ENST00000453304|hu_mus|FALSE|FALSE (ssRNA)
RNA: GGGAGUUCUACAGUCCGACGAUCAAGAGCCUUGGGUUCUUCUAGGAGCUGUCCUCCCAUUUGCCUCUCCAGUUGUAGAACUUCCUUCAGGGCAUCCUGUGUGUCAUCCAGGCAGUAGACUCUAAUGCUGUACUCCAGGGAAGACAACAGAGGAUUGAGCAUCA
B16: chr3:47164985:47164986:-_ENSG00000181555_ENST00000409792|hu_mus|motif|central (ssRNA)
RNA: GGGAGUUCUACAGUCCGACGAUCUCUUUCGGACCGACAUCGGGAAGAUACAUACCGAGUAUCUCGUUCAAGUUUUGAGUAGCGGCAAUAUCUAUCAUCUCUCUCUGUUUUCGAUCUUGAUGAUUUCCCCAAAUCCUCACUUUUCAACAGAGGAUUGAGCAUCA
B17: 44827152_44827272_573_5pUTR_ENSMUSG00000038518_ENSMUST00000173246|mouse|control|control (ssRNA)
RNA: GGGAGUUCUACAGUCCGACGAUCAUGAUAUUCCUCUUGGGUCUUUCCUUGCUCAUUCUGAGAUCCAAAUGCUGAUUGCAAAAGGGGACAAUUGCUUCAUGAAUUUAAAGCCGUCAGAAAUUUGCAAAAAAAUAUCCUGGUGGUCAACAGAGGAUUGAGCAUCA
B18: chr4:103533647:103533648:+_ENSG00000109320_ENST00000505458|hu_hu|motif|central (ssRNA)
RNA: GGGAGUUCUACAGUCCGACGAUCCCCCAGACCUAAUUUCUGCGCCAGAGUAGCCCAGUUUUUGUCUGGAUCAGGAAUUUCGGGUAACUUAUACAGCUGCAGCUUCACAUCUUCAGCCAGCUGUUUCAUGUCUCCUUGUGCUAGCAACAGAGGAUUGAGCAUCA
B19: 7361827_7365117_867_3pUTR_ENSMUSG00000024969_ENSMUST00000032557|mouse|control|control (ssRNA)
RNA: GGGAGUUCUACAGUCCGACGAUCGGAUGAUUCAAAACCUUCAUUAUUCUUACUUCUCGGAACAGUUUCUGUAGGCUGGAGGAGUUCAGCUGGGUCUUGUCGAUGAUCUUCACAGCUACCUCUUUCCCCGUCAGGAUGUGCCGGCAACAGAGGAUUGAGCAUCA
B20: chr4:41951345:41951346:+_ENSG00000109133_ENST00000513702|hu_hu|motif|central (ssRNA)
RNA: GGGAGUUCUACAGUCCGACGAUCAAAUAAGGUCCGACAAUAUGGGUUUCUUCGAGACGAAUAUCGAAGGGUAAGAAAUCGGUAGUAUAUAAAAGGUUGGAGCAAACUUCCUUGACCACUAAAAAGCAUAAAAACUGUCGCAGGCAACAGAGGAUUGAGCAUCA
B21: 114262960_114264180_1107_3pUTR_ENSG00000145362_ENST00000514960|human|control|control (ssRNA)
RNA: GGGAGUUCUACAGUCCGACGAUCUCUAACACCUCCACAUCCCUGCUUCUGGCCACCUCAGCAAAAUUUUCUUGUUGUUCAAGGGUCUUAUCCACUUUAUCAUCAGUCAUGCAGAAACACCUCAACCUGGCUUCAAUGGGGUCACAACAGAGGAUUGAGCAUCA
B22: chr7:139256351:139256352:-_ENSG00000064393_ENST00000406875|hu_mus|FALSE|FALSE (ssRNA)
RNA: GGGAGUUCUACAGUCCGACGAUCCUUGUGAGAUCCAUGAGUCUCCCCUUUUCAUUAUGCGAGCUUCUCUGAAAUCCUUCUGCUCACAAAGAGCCCAGGAAAGACAAUCCACGUGACAUUAAAACAAUGAAAAAAACAUAAAGACAACAGAGGAUUGAGCAUCA

The binders below were run against T1, UNK ZnF1-3 (human, UniProt Q9C0B0 31-174) (assay: nsRBNS (natural sequence RNA bind-n-seq); RBNS binding buffer (assumed for nsRBNS): 25 mM Tris pH 7.5, 150 mM KCl, 3 mM MgCl2, 0.01% Triton X-100, 500 ug/ml BSA, 20 U/ml SUPERase-In, 4 C; UNK is unkempt and MSI1 is Musashi-1; names of the RNAs are library labels; protein concentration not given here; high values mean tight binding).
T1 sequence: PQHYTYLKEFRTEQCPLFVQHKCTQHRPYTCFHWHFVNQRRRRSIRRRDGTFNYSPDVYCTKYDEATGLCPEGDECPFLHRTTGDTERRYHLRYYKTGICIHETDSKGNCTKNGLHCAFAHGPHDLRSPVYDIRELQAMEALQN

Question: B1 was tested. Which binding signal did it give?
Answer: 1.69 enrichment R

Question: With B2 as the binder, how does the binding signal read?
Answer: 0.864 enrichment R

Question: For B3, which binding signal is on record?
Answer: 0.563 enrichment R

Question: B4 was tested. Which binding signal did it give?
Answer: 0.354 enrichment R

Question: B5 was tested. Which binding signal did it give?
Answer: 1.08 enrichment R

Question: For B6, which binding signal is on record?
Answer: 0.787 enrichment R

Question: With B7 as the binder, how does the binding signal read?
Answer: 0.777 enrichment R

Question: For B8, which binding signal is on record?
Answer: 0.787 enrichment R

Question: Which binding signal does the source give for B9 here?
Answer: 2.04 enrichment R

Question: Which binding signal does the source give for B10 here?
Answer: 1.14 enrichment R

Question: With B11 as the binder, how does the binding signal read?
Answer: 0.604 enrichment R

Question: B12 was tested. Which binding signal did it give?
Answer: 1.42 enrichment R

Question: B13 was tested. Which binding signal did it give?
Answer: 0.624 enrichment R

Question: For B14, which binding signal is on record?
Answer: 0.713 enrichment R

Question: Which binding signal does the source give for B15 here?
Answer: 0.933 enrichment R

Question: B16 was tested. Which binding signal did it give?
Answer: 0.667 enrichment R

Question: With B17 as the binder, how does the binding signal read?
Answer: 1.2 enrichment R

Question: How did the binding signal turn out when B18 was run?
Answer: 0.587 enrichment R

Question: For B19, which binding signal is on record?
Answer: 0.637 enrichment R

Question: For B20, which binding signal is on record?
Answer: 1.53 enrichment R

Question: With B21 as the binder, how does the binding signal read?
Answer: 1.05 enrichment R

Question: Which binding signal does the source give for B22 here?
Answer: 1.21 enrichment R
